Where “and” joins values, the source holds several entries; their conditions need not be identical. Equal entries are not always repeated. Inconclusive means that the source gave no clear call. Such entries were picked first, then a sample of the others. A potency beside an inconclusive call is a rough fit, not a confirmed value. Some structures have more than one record in an assay (separate samples or runs), and their calls can disagree. Calls of active or inactive are those of the source. Calls follow the shape of the dose curve; as a rule, active = well fitted cell-killing curve with a large enough effect; inconclusive = small, poorly fitted or top-dose-only effect, or effect the other way; inactive = flat fitted curve, though single readings scatter.
How the values were obtained:
Test in all cases: Primary qHTS to identify gynecologic anti-cancer compounds using libraries of approved drugs and bioactive compounds (AID 1345084); also: nearly all actives have a fitted effect of over 55% in size
Conditions in all cases: Gynecologic cancer cell panel viability, ATPlite luminescence, 48 h; series mostly up to 57.5 µM
[1] = system: JEG-3
How it was run: (§1)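 Cells, 1,000 per well, were allowed to settle for 16 h at 37 C before compound addition. Five concentrations were tested for 48 h, and viability was read by ATPlite luminescence after 15 min at room temperature.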

[2] = system: SKOV3
How it was run: as §1

[3] = system: PA-1
How it was run: as §1

[4] = system: Tov-21-G
How it was run: as §1

[5] = system: OV90
How it was run: as §1

[6] = system: Tov112D
How it was run: as §1
Potency is read from the fitted curve at half-maximal effect; tags tell the direction and shape of the fitted curve.

`CC(C(=O)O)c1ccc(CC2CCCC2=O)cc1` (configuration not stated) was tested, and the Potency [1] was “inactive” and the Potency [2] was “inactive”.
With `CCCCCCCCCCCCCCCCCC(=O)OCC(O)CO` (configuration not stated) the Potency [1] was “inactive”, the Potency [3] was inconclusive: 39.8 µM [rising, single point] and the Potency [4] was “inactive”.
For `Cc1cc(-c2ccccc2)nnc1NCCN1CCOCC1`, the Potency [1] was “inactive” and the Potency [3] was “inactive”.
With `COc1cc(C(=O)OCCCN2CCCN(CCCOC(=O)c3cc(OC)c(OC)c(OC)c3)CC2)cc(OC)c1OC` the Potency [1] was “inactive”, the Potency [5] was inconclusive: 31.6 µM [cytotoxic, single point] and the Potency [4] was inconclusive: 39.8 µM [cytotoxic, partial curve, poor fit].
In the case of `O=C(CCCN1CCC(O)(c2cccc(C(F)(F)F)c2)CC1)c1ccc(F)cc1`, the Potency [5] is reported as inconclusive: 39.8 µM [cytotoxic, single point].
For `CCc1cc(C(N)=S)ccn1`, the Potency [1] was inconclusive: 7.08 µM [rising, single point] and the Potency [3] was “inactive”.
For `O=C(CCCN1CCN(c2ccc(F)cc2)CC1)NC1c2ccccc2CSc2ccccc21` (configuration not stated), the Potency [5] was inconclusive: 31.6 µM [cytotoxic, partial curve].
For `Clc1ccc2c(c1)C(N1CCNCC1)=Nc1ccccc1O2`, the Potency [1] was “inactive”, the Potency [2] was “inactive” and the Potency [6] was “inactive”.
With `CN(C)CCCOc1nn(Cc2ccccc2)c2ccccc12` the Potency [1] was inconclusive: 31.6 µM [cytotoxic, single point], the Potency [5] was active: 14.1 µM and the Potency [3] was active: 31.6 µM. For the same compound, the Potency [2] was active: 22.4 µM, the Potency [4] was active: 31.6 µM and the Potency [6] was inconclusive: 31.6 µM [cytotoxic, single point].
`CCCCC1(COC(=O)CCC(=O)O)C(=O)N(c2ccccc2)N(c2ccccc2)C1=O` was tested, and the Potency [1] was “inactive”.
`CC(=O)c1ccc2c(c1)N(CCCN1CCC(CCO)CC1)c1ccccc1S2` was tested, and the Potency [5] was inconclusive: 31.6 µM [cytotoxic, single point] and the Potency [3] was inconclusive: 39.8 µM [cytotoxic, single point].
`COc1ccc(CCC(=O)Nc2nc3ccc(Cl)cc3s2)cc1OC` was tested, and the Potency [1] was “inactive”.
In the case of `Nc1[nH]nc2nnc(-c3c(-c4ccccc4)nn4ccccc34)cc12`, the Potency [1] is reported as inconclusive: 1.12 µM [cytotoxic, single point].
`OCc1ccccc1O` was tested, and the Potency [5] was “inactive” and the Potency [3] was “inactive”.
In the case of `COc1ccc(NS(=O)(=O)c2ccc(N)cc2)nn1`, the Potency [5] is reported as inconclusive: 35.5 µM [cytotoxic, single point].
For `NC(=Nc1ccccc1)Nc1ccccc1`, the Potency [1] was inconclusive: 14.1 µM [rising, full curve], the Potency [5] was active: 14.1 µM and the Potency [2] was “inactive”. For the same compound, the Potency [6] was inconclusive: 1.41 µM [cytotoxic, full curve, poor fit].
For `OC[C@H]1O[C@@H](n2cnc3c(=S)nc[nH]c32)[C@H](O)[C@@H]1O`, the Potency [1] was active: 2.51 µM, the Potency [5] was active: 8.91 µM and the Potency [6] was inconclusive: 4.47 µM [cytotoxic, full curve, poor fit].
For `COc1cc(C=C2CCC/C(=C\c3ccc(O)c(OC)c3)C2=O)ccc1O`, the Potency [1] was inconclusive: 14.1 µM [cytotoxic, partial curve], the Potency [5] was “inactive” and the Potency [3] was inconclusive: 35.5 µM [cytotoxic, single point]. The Potency [2] was inconclusive: 39.8 µM [cytotoxic, single point], the Potency [4] was inconclusive: 20 µM [cytotoxic, partial curve] and the Potency [6] was inconclusive: 39.8 µM [cytotoxic, single point].
In the case of `CC(C(O)c1ccc(O)cc1)N1CCC(Cc2ccccc2)CC1` (configuration not stated), the Potency [5] is reported as inconclusive: 39.8 µM [cytotoxic, partial curve, poor fit] and inconclusive: 17.8 µM [cytotoxic, single point].
For `COCC(=O)O[C@]1(CCN(C)CCCc2nc3ccccc3[nH]2)CCc2cc(F)ccc2[C@@H]1C(C)C`, the Potency [1] was inconclusive: 39.8 µM [cytotoxic, single point] and the Potency [2] was inconclusive: 28.2 µM [cytotoxic, single point].
With `Oc1ccc(C(O)CNCCCCCCNCC(O)c2ccc(O)c(O)c2)cc1O` (configuration not stated) the Potency [5] was “inactive”.
In the case of `Cc1ccc(C(=O)Nc2cccc(C(F)(F)F)c2)cc1-c1ccc2nc(NCCN3CCOCC3)ncc2c1`, the Potency [1] is reported as inconclusive: 39.8 µM [rising, partial curve, poor fit], the Potency [5] is reported as active: 6.31 µM and the Potency [2] is reported as active: 15.8 µM. The Potency [6] was inconclusive: 14.1 µM [cytotoxic, partial curve].
In the case of `O=C(CCCCCCC(=O)Nc1ccc([C@H]2O[C@@H](CSc3nc(-c4ccccc4)c(-c4ccccc4)o3)C[C@@H](c3ccc(CO)cc3)O2)cc1)NO`, the Potency [1] is reported as inconclusive: 39.8 µM [cytotoxic, single point], the Potency [5] is reported as inconclusive: 35.5 µM [cytotoxic, single point] and the Potency [3] is reported as inconclusive: 22.4 µM [cytotoxic, single point]. The Potency [2] was inconclusive: 17.8 µM [cytotoxic, single point] and the Potency [4] was inconclusive: 35.5 µM [cytotoxic, single point].
